Screen size: about 310,000 compounds; about 14,000 (4.5%) showed an effect of 50% or more. The effect is printed as a negative number. The list shows a part of the results.
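Further: peak tail current of the secondary pulse compared with the same well before compound.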

Sequence of human ether-à-go-go-related gene (hERG) potassium channel (Q12809 whole entry, looked up): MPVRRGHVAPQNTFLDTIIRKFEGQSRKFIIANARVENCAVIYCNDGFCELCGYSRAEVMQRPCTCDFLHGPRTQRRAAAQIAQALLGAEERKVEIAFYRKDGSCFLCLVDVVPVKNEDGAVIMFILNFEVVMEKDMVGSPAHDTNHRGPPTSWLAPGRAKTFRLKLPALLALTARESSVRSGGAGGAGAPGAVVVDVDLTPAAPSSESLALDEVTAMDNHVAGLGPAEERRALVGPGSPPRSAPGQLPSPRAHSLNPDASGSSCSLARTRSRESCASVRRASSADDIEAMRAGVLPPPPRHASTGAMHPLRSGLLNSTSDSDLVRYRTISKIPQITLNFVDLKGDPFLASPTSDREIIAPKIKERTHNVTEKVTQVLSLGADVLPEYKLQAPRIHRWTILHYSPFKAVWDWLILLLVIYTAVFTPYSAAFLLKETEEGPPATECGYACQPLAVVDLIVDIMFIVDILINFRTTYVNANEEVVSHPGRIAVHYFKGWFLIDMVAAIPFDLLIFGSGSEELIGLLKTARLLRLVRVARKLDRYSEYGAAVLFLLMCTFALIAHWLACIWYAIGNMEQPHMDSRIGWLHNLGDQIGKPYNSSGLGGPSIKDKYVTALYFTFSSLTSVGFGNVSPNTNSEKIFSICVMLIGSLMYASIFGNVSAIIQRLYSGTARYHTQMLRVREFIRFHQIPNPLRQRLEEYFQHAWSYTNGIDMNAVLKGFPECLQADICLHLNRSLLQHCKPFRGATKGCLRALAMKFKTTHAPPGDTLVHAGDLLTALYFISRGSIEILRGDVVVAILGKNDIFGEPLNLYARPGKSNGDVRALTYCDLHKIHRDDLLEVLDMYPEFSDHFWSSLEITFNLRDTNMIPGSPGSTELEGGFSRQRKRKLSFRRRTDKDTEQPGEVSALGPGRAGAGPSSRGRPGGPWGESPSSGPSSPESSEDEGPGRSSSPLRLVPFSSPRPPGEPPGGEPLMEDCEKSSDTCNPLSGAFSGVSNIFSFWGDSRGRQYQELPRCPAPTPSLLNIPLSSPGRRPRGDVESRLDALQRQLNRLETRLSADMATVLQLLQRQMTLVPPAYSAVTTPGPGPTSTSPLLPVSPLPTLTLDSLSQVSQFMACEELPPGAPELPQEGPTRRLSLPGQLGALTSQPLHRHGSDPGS

The assay addresses human ether-à-go-go-related gene (hERG) potassium channel (human, UniProt Q12809). The assay is described as follows: primary screen, population patch clamp on CHO cells stably expressing hERG.
`CCc1ccc(N=C2NC(=O)/C(=C/c3cc(OC)c(O)c(OC)c3)S2)cc1`: the “hERG current change (%, negative = inhibition) at 10uM” value amounted to 14.2%.

With `S=C(NCc1ccccn1)Nc1ccc(Cl)c(Cl)c1`, the “hERG current change (%, negative = inhibition) at 10uM” value came to 3.45%.

Consider `CC(C)(OC(=O)c1ccc(C#N)cc1)c1cc2ccccc2c(=O)o1`, for which the “hERG current change (%, negative = inhibition) at 10uM” value was -73.1%.

`CC1CCCN(S(=O)(=O)c2ccc3c(c2)c(=O)nc2ccc(Cl)cn23)C1` (stereo not drawn): the “hERG current change (%, negative = inhibition) at 10uM” value is -10.5%.

For the compound `CCn1c2ccccc2c2cc(NC(C)=O)ccc21`, the “hERG current change (%, negative = inhibition) at 10uM” value is given as 7.2%.

Consider `Cc1ccc(/C=N/NC(=O)CSc2nc3ccccc3o2)cc1`, for which the “hERG current change (%, negative = inhibition) at 10uM” value is 3.66%.

Consider `O=C(N=C1N=C2C=CC=CN2Cc2ccccc21)c1ccc(S(=O)(=O)N2CCOCC2)cc1`, for which the “hERG current change (%, negative = inhibition) at 10uM” value came out at 7.24%.

`O=C(NN=C1CCC(=NNC(=O)c2cccnc2)CC1)c1cccnc1`: the “hERG current change (%, negative = inhibition) at 10uM” value amounted to 39.4%.

Consider `Cc1ccc(-c2nnc(Nc3ccc(CC(N)=O)cc3)c3ccccc23)cc1S(N)(=O)=O`, for which the “hERG current change (%, negative = inhibition) at 10uM” value was 6.75%.

Consider `CCOCCCNC(=O)C(Cc1ccccc1)NS(=O)(=O)c1cccc2nsnc12` (stereo not drawn), for which the “hERG current change (%, negative = inhibition) at 10uM” value is 7.58%.

In the case of `COCCCN1CC(=O)N2C(c3ccc(C)cc3)c3[nH]c4ccccc4c3C[C@H]2C1=O` (stereo partly drawn), the “hERG current change (%, negative = inhibition) at 10uM” value was -45.5%.

Turning to `Cc1nn(CCCC(=O)Nc2c(F)cc(F)cc2Br)c(C)c1[N+](=O)[O-]`, the “hERG current change (%, negative = inhibition) at 10uM” value is reported as -21.6%.

Consider `CC(C)c1ccc(OCc2ccc(C(=O)O)o2)cc1`, for which the “hERG current change (%, negative = inhibition) at 10uM” value was -4.08%.

`Cc1cc2c(OCC(O)CNC(C)(C)C)cccc2[nH]1` (stereo not drawn): the “hERG current change (%, negative = inhibition) at 10uM” value is 11.6%.

For the compound `CCN1CCN(CCC(=O)Nc2ccccc2)CC1`, the “hERG current change (%, negative = inhibition) at 10uM” value is recorded as 8.58%.

For `Cc1ccnc(-n2c(-c3ccco3)nc3ccccc3c2=O)c1`, the “hERG current change (%, negative = inhibition) at 10uM” value is reported as -12.4%.

`Cc1ccc(OCC(=O)N2CCC3(CC2)CC(=O)c2ccccc2O3)cc1`: the “hERG current change (%, negative = inhibition) at 10uM” value is on record as -73.3%.

With `COc1cc(C2C3=C(CCCC3=O)Nc3c2c(C)nn3-c2cccc(C)c2)cc(OC)c1O` (stereo not drawn), the “hERG current change (%, negative = inhibition) at 10uM” value is reported as -0.666%.

`COc1cccc(CN2CC(C(=O)NC3CCC3)CCC2=O)c1` (stereo not drawn): the “hERG current change (%, negative = inhibition) at 10uM” value is reported as 17.7%.

Regarding `COc1ccc(CN2CCCC(C(=O)Nc3cccc(-n4cccn4)c3)C2)c(F)c1` (stereo not drawn), the “hERG current change (%, negative = inhibition) at 10uM” value is reported as -30.3%.

Consider `CC1(C)Cc2c(sc3nnn(Cc4ccccc4)c(=O)c23)CO1`, for which the “hERG current change (%, negative = inhibition) at 10uM” value is given as -16.5%.

For the compound `CCOc1ccc(N(CC(=O)O)S(=O)(=O)c2cccnc2)cc1`, the “hERG current change (%, negative = inhibition) at 10uM” value is on record as 7.01%.

With `COc1ccccc1CN1CCN(S(=O)(=O)c2ccc(C)cc2)CC1`, the “hERG current change (%, negative = inhibition) at 10uM” value was -19%.

Consider `CCCn1nnc(NC(=O)c2cccc(Cl)c2)n1`, for which the “hERG current change (%, negative = inhibition) at 10uM” value is recorded as 13.1%.

For the compound `O=C(NC(=S)Nc1nc2c(s1)CCCC2)c1ccc(C(=O)c2ccccc2)cc1`, the “hERG current change (%, negative = inhibition) at 10uM” value was determined as 18.8%.

Regarding `CCOC(=O)NCc1ccc2c(c1)cc(C)n2C`, the “hERG current change (%, negative = inhibition) at 10uM” value is -7.56%.

Consider `Cc1cccc(C(=O)c2ccccc2C(=O)O)c1`, for which the “hERG current change (%, negative = inhibition) at 10uM” value turned out to be 18%.

Take `CC(=O)NC(C)C(=O)OCC(=O)Nc1ccc(Br)cc1` (stereo not drawn): the “hERG current change (%, negative = inhibition) at 10uM” value worked out at 1.95%.

Take `CCOCCOc1nc2c(c(=O)n(C)c(=O)n2C)n1CCc1ccccc1`: the “hERG current change (%, negative = inhibition) at 10uM” value amounted to 0.435%.

Take `O=C(NNC(=O)c1ccc[nH]1)c1cccc(C(F)(F)F)c1`: the “hERG current change (%, negative = inhibition) at 10uM” value stood at 30.7%.

As for `Cl.c1ccc(C2CNCCc3ccccc32)cc1` (stereo not drawn), the “hERG current change (%, negative = inhibition) at 10uM” value was -33.6%.

For the compound `CCn1nc(C)cc1C(=O)N1CCCC(Nc2ccc(F)c(F)c2)C1` (stereo not drawn), the “hERG current change (%, negative = inhibition) at 10uM” value is 7.74%.

As to `CCOc1cc(S(=O)(=O)NCCCn2ccnc2)ccc1Cl`, the “hERG current change (%, negative = inhibition) at 10uM” value is listed as -64%.

As to `C=CCNC(=O)C1CCN(c2ccc(S(=O)(=O)N3CCOCC3)cc2[N+](=O)[O-])CC1`, the “hERG current change (%, negative = inhibition) at 10uM” value was -24%.

`CC(CCc1ccccc1)NC(=O)CNC(=O)N1CC(=O)Nc2ccccc21` (stereo not drawn): the “hERG current change (%, negative = inhibition) at 10uM” value is given as -2.77%.

Turning to `COC(=O)c1ccc(CN2C(=O)C(C)N(C(=O)c3c(F)cccc3F)c3ccccc32)cc1` (stereo not drawn), the “hERG current change (%, negative = inhibition) at 10uM” value turned out to be 10.1%.

In the case of `CCOc1ccc(-c2nnc(SCc3nc4ccccc4[nH]3)n2N)cc1`, the “hERG current change (%, negative = inhibition) at 10uM” value is on record as -34.3%.

For `O=C(COc1ccccc1)Nc1c2c(nn1-c1ccc(F)cc1)CS(=O)(=O)C2`, the “hERG current change (%, negative = inhibition) at 10uM” value is listed as -0.258%.

For `COc1ccc(-c2nnc(SCC(=O)N(C)C3CCS(=O)(=O)C3)n2N)cc1OC` (stereo not drawn), the “hERG current change (%, negative = inhibition) at 10uM” value came out at 19.8%.

Take `CC(C)N(C)C1CCN(C(=O)Nc2ccc(Cl)cc2)CC1`: the “hERG current change (%, negative = inhibition) at 10uM” value is -31%.

`COc1ccc(S(=O)(=O)Nc2ccc(Oc3ccsc3C(=O)O)cc2)cc1`: the “hERG current change (%, negative = inhibition) at 10uM” value was found to be 25%.

`COc1ccc(C2c3ccc(O)cc3Oc3ncn(Cc4ccccc4)c(=N)c32)cc1OC` (stereo not drawn): the “hERG current change (%, negative = inhibition) at 10uM” value is listed as -51.7%.

`COc1cc(NC(=O)CCN2CC(C)OC(C)C2)cc(OC)c1` (stereo not drawn): the “hERG current change (%, negative = inhibition) at 10uM” value is 2.79%.

Take `Cc1ccc(Cl)cc1N(Cc1ccc(C(=O)NCc2cccnc2)cc1)S(=O)(=O)c1ccccc1`: the “hERG current change (%, negative = inhibition) at 10uM” value stood at 0.526%.

In the case of `COc1ccc(OCCn2c(=N)n(CCO)c3ccccc32)cc1.Cl`, the “hERG current change (%, negative = inhibition) at 10uM” value is on record as -24.2%.

As to `CC(C)c1ccc(C2NC(=O)NC3=C2CCc2ccccc23)cc1` (stereo not drawn), the “hERG current change (%, negative = inhibition) at 10uM” value is -33.5%.

Consider `CCOC(=O)c1c2c(n(C)c1C)C(=O)C(=O)c1ccc(Br)cc1-2`, for which the “hERG current change (%, negative = inhibition) at 10uM” value was 19.6%.

Take `CCOc1ccc(NC(=O)c2ccc(NCC(=O)N3CCCCCC3)cc2)cc1`: the “hERG current change (%, negative = inhibition) at 10uM” value was 3.07%.

On to `COc1ccc(C(=O)N2CCCc3ccccc32)cc1Br`, for which the “hERG current change (%, negative = inhibition) at 10uM” value is given as -29.4%.

For `O=C1CC(O)(C(F)(F)F)Oc2c1ccc1ccccc21` (stereo not drawn), the “hERG current change (%, negative = inhibition) at 10uM” value is on record as 7.95%.

For `CCOC(=O)c1c(NC(=O)COC(=O)CNC(=O)c2ccco2)sc(C)c1C`, the “hERG current change (%, negative = inhibition) at 10uM” value is on record as -5.35%.

For the compound `Cc1ccsc1C(=O)C1CCCN(Cc2ccc(O)cc2)C1` (stereo not drawn), the “hERG current change (%, negative = inhibition) at 10uM” value was -22.9%.

With `COc1nc(-c2ccccc2)ccc1-c1noc(C)n1`, the “hERG current change (%, negative = inhibition) at 10uM” value is reported as -5.52%.

Turning to `COc1ccc(NC(=O)CSc2sc3c(O)cc(=O)[nH]c3c2C#N)c(OC)c1`, the “hERG current change (%, negative = inhibition) at 10uM” value is reported as 9.73%.

Take `C/C(=N\Nc1nc(-c2cc(C)ccc2C)cs1)c1cc2ccccc2oc1=O`: the “hERG current change (%, negative = inhibition) at 10uM” value amounted to 29.3%.

On to `Cc1nc2ccccc2c(=O)n1-c1cccc(C(F)(F)F)c1`, for which the “hERG current change (%, negative = inhibition) at 10uM” value is on record as -3.18%.

Consider `OC(COc1ccc2c(c1)CCC2)CN1CCN(c2ccccc2F)CC1` (stereo not drawn), for which the “hERG current change (%, negative = inhibition) at 10uM” value was -14.6%.

The values above are taken from paper PMC4336329 (PLoS ONE, 2015).
